These are yes or no findings as the source states them, for the method shown. Binding seen in cells or lysates may run through a third protein. Some binding calls cover weakened binding; strength is not graded here.
Legend:
[1] = molecular target: endogenous CBP (CREB-binding protein) (mouse (endogenous in rela−/− fibroblasts)), P45481; experiment: co-IP; nuclear extracts of RelA(wt/mutants) reconstituted rela−/− cells, unstimulated or stimulated with TNFα (5 ng/ml; 15, 30, 45 min); anti-CBP, anti-p300 or anti-RelA antibody, protein-G beads; immunoblot for RelA or CBP; conditions: remark: other sources report otherwise
[2] = molecular target: endogenous p300 (mouse (endogenous in rela−/− fibroblasts)), B2RWS6; experiment: as above; conditions: remark: other sources report otherwise

B1: RelA(wt), full length, in reconstituted rela−/− cells, Q04207 1-549 (protein)
chain: MDDLFPLIFPSEPAQASGPYVEIIEQPKQRGMRFRYKCEGRSAGSIPGERSTDTTKTHPTIKINGYTGPGTVRISLVTKDPPHRPHPHELVGKDCRDGYYEADLCPDRSIHSFQNLGIQCVKKRDLEQAISQRIQTNNNPFHVPIEEQRGDYDLNAVRLCFQVTVRDPAGRPLLLTPVLSHPIFDNRAPNTAELKICRVNRNSGSCLGGDEIFLLCDKVQKEDIEVYFTGPGWEARGSFSQADVHRQVAIVFRTPPYADPSLQAPVRVSMQLRRPSDRELSEPMEFQYLPDTDDRHRIEEKRKRTYETFKSIMKKSPFNGPTEPRPPTRRIAVPTRNSTSVPKPAPQPYTFPASLSTINFDEFSPMLLPSGQISNQALALAPSSAPVLAQTMVPSSAMVPLAQPPAPAPVLTPGPPQSLSAPVPKSTQAGEGTLSEALLHLQFDADEDLGALLGNSTDPGVFTDLASVDNSEFQQLLNQGVSMSHSTAEPMLMEYPEAITRLVTGSQRPPDPAPTPLGTSGLPNGLSGDEDFSSIADMDFSALLSQISS
- binding [1]: binds
- binding [2]: binds
